Measured values: PubChem BioAssay AID1645887 (National Center for Advancing Translational Sciences (NCATS), 2021)
Values joined by “and” are separate entries in the source; they are usually repeats but may differ in a detail not shown here. Equal values may be shown once. Screen size: about 16,000 compounds; about 40 (0.2%) were called active. Not shown: some 1% with an inconclusive outcome. The call rests on the fitted dose curve; in most records, active means well fitted activation curve with a large enough effect; inconclusive means small, poorly fitted or top-dose-only effect, or another doubt; inactive means no such curve, though single readings can be large or run the other way. The list shows a part of the results. Positions of bridges follow the written chain, without caps; N, C: chain ends. Non-standard residues stand in square brackets, D forms with d. Residues, ends and D or L forms follow the SMILES beside them. *: point of attachment. pGlu = O=C1CC[C@@H](C(=O)O)N1; X4 = CC[C@H](C)CCCCC(=O)*; Dab = NCC[C@H](N)C(=O)O

The compounds below were run against Rap guanine nucleotide exchange factor 4 (Homo sapiens) (UniProt Q8WZA2) (assay: Validation qHTS for agonist of cAMP-regulated guanine nucleotide exchange factor 4 (EPAC2)). Settings: EPAC2 Rap1B BODIPY-GDP exchange, fluorescence; activation: active compounds read high.
Sequence of UniProt Q8WZA2 (Q8WZA2 whole entry, looked up): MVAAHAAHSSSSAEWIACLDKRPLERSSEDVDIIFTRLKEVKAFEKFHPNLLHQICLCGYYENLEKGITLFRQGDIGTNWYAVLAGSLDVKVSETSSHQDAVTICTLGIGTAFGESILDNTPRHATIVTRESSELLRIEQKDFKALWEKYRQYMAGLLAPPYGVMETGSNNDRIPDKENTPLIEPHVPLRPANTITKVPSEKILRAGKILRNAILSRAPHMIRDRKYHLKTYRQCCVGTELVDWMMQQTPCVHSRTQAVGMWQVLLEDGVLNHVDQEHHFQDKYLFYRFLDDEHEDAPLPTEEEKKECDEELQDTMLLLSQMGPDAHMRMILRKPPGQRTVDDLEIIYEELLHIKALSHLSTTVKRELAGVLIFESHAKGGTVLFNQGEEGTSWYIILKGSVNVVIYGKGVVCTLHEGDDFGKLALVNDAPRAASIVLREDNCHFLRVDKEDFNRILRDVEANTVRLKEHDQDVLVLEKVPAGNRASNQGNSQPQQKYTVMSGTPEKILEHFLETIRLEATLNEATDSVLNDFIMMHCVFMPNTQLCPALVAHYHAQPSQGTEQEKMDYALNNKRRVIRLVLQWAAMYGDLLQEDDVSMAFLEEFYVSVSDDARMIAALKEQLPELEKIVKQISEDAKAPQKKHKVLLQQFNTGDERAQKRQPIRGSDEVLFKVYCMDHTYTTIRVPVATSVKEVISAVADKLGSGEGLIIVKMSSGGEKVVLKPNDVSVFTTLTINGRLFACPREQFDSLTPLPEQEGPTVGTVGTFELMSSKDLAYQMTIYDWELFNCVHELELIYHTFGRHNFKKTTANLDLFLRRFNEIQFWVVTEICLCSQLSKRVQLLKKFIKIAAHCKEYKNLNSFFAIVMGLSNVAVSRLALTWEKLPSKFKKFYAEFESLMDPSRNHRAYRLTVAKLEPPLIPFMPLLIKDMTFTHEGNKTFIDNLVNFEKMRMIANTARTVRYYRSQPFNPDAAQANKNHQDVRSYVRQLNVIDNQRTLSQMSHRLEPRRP
Summary of the method: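 Signal normalized against 6.5 mM cAMP as agonist control. Mix of EPAC2 (100 nM), RAP1B-BODIPY-GDP (250 nM) and GDP (50 uM) was read kinetically at 480/540 nm, every 5 min over 30 min, after 5 min room-temperature incubation with compound.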
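Further: exchange makes BODIPY-GDP fluorescence drop when released from Rap1B; series mostly up to about 150 µM.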
On the % scale 0 is the no-effect control and ±100 the full control effect.

activation, inactive:
COc1cc(=O)n2c(c1C(=O)NCc1ccco1)CCN(C(=O)c1cccnc1SC)CC2 5.09%, COc1c(O)cc(O)cc1O -5.39%, CCN(CC)CC1CCCCN1CC(=O)N1c2ccccc2C(=O)Nc2cccnc21 (stereo not drawn) -6.58%, CC#CCC(C)[C@H](O)/C=C/[C@@H]1[C@H]2C/C(=C/CCCC(=O)O)C[C@H]2C[C@H]1O (stereo partly drawn) -23.6%, Cc1ccccc1-c1ccc2ncnc(NCc3cccnc3)c2c1 -7.58%, CC1(C)C(=O)N(CCN2CCC(C(=O)c3ccc(F)cc3)CC2)c2ccccc21 -41.9%, COc1cc(-c2ccc(C)cc2)cc2c1OCCN(C(=O)CCn1ccc(C)n1)C2 -31.6%, CCCCCc1ccc(-c2cn(Cc3ccc4c(c3)C(=O)c3ccccc3C4=O)nn2)cc1 -12.3%, O=C(OC1C[C@H]2CC[C@@H](C1)[N+]21CCCC1)C(O)(c1ccccc1)c1ccccc1 (stereo partly drawn) 2.26%, C[C@@H]1CN(Cc2ccc3c(c2)CN(Cc2nc(-c4ccccc4)cs2)CCO3)C[C@H](C)O1 1.25%, COC(=O)/C=C/c1cc(F)ccc1S(=O)(=O)Nc1ccccc1 -14.1%, COCCn1c(=O)c(-c2cc(F)cc(F)c2)nc2cnc(N3CCNCC3)nc21 -3.98%, CC(=O)N1CCC[C@H]1C(=O)NCC1Cc2cc(-c3cnccn3)cc(Cl)c2O1 (stereo partly drawn) -3.25%, Cc1noc(C)c1C(=O)N1CCC[C@@]2(CCN(c3ccccc3)C2)C1 -9.53%, CCCC(=O)Nc1ccc(OCC(O)CNC(C)C)c(C(C)=O)c1 (stereo not drawn) -32.2% and -9.95%, N#CCCn1c(=O)c(-c2ccc(Cl)cc2)nc2cnc(N3CCOCC3)nc21 -0.995%, C[N+](C)(C)CCC(=O)c1cccc2ccccc12 -12.1%, CC[C@H](C)CCCCC(=O)N[C@@H](CCN)C(=O)N[C@H](C(=O)N[C@@H](CCN)C(=O)N[C@H]1CCNC(=O)[C@@H]([C@H](C)O)NC(=O)[C@H](CCN)NC(=O)[C@H](CCN)NC(=O)[C@H](CC(C)C)NC(=O)[C@@H](CC(C)C)NC(=O)[C@H](CCN)NC1=O)[C@@H](C)O (X4-[Dab]T[Dab][Dab][Dab][dL]L[Dab][Dab][dT]; lactam 4-C) -2.24%, CC[C@H](C)[C@H](NC(=O)[C@H](Cc1ccccc1)NC(=O)[C@H](C)NC(=O)[C@H](CC(=O)O)NC(=O)[C@H](CCCCN)NC(=O)[C@H](CO)NC(=O)[C@@H]1CCCN1C(=O)[C@@H]1CCC(=O)N1)C(=O)NCC(=O)N[C@@H](CC(C)C)C(=O)N[C@@H](CCSC)C(N)=O ([pGlu]PSKDAFIGLM-NH2) -13.7%, C[C@@H]1O[C@@H](OC[C@H]2O[C@@H](Oc3c(-c4ccc(O)c(O)c4)oc4cc(O)cc(O)c4c3=O)[C@H](O)[C@@H](O)[C@@H]2O)[C@H](O)[C@H](O)[C@H]1O -2.1%, COc1ccc(-c2ccnc(-n3ncc(C(=O)NCc4ccon4)c3C3CC3)n2)cc1F -5.67%, C#CCCCCCCCCCCCCCCCC(=O)O -11% and -3.01%, CC(C)C1=CC2=CC[C@H]3[C@](C)(C(=O)O)CCC[C@]3(C)C2CC1 (stereo partly drawn) -26.6%, COCCNc1ccnc(-c2ccccc2C)n1 -12.6%, CO/N=C(\C(=O)N[C@@H]1C(=O)N2C(C(=O)O)=C(CSC(=O)c3ccco3)CS[C@H]12)c1csc(N)n1 -4.02%, N[C@@H]1CCN(O)C1=O -12%, CC(=O)Nc1ccc(OCC(O)CNC(C)C)cc1 (stereo not drawn) -22.5%, COc1ccc(Oc2ncc3nc(CCc4ccccc4)c(=O)n(C4CC4)c3n2)cc1 -3.86%, O=C(c1csnn1)N1CCC2(CC1)CN(c1cccc(-c3ccccc3)c1)C2 17%, COc1ccc(C(=O)N2CCC3(CCCN(c4ccc(-c5ccccc5)cc4)C3)CC2)cc1 -24.1%, CCCCCCCCCCC/C=C\C/C=C\CCCC(=O)O -13.4%, Cc1c(C)c2c(c(C)c1O)CCC(C)(CCCC(C)CCCC(C)CCCC(C)C)O2 (stereo not drawn) -51.9%, CS(=O)(=O)Nc1cccc(-c2ccc3ncnc(N4CCNCC4)c3c2)c1 -1.96%, CCNCCCNCCCCNCCCNCC -8.78%, COc1cc(C)c(Cc2cnc(N)nc2N)cc1OC 7.06%, Cc1cccc(C)c1NC(=O)CN1CCN(CCCC(c2ccc(F)cc2)c2ccc(F)cc2)CC1 -6.44%, Cc1nc(N=Nc2cc(S(=O)(=O)O)c3cc([N+](=O)[O-])cc(S(=O)(=O)O)c3c2)c(COP(=O)(O)O)c(C=O)c1O -29.7% and -12.5% and -14.4%, Cc1cccc(C2CN(C)CCc3c2cc(O)c(O)c3Cl)c1 (stereo not drawn) -20.7%, CC/C=C(\C(=O)N[C@@H]1C(=O)N2C(C(=O)OCOC(=O)C(C)(C)C)=C(COC(N)=O)CS[C@H]12)c1csc(N)n1 8.04% and -8.65%, COc1cccc2ccc(CN3CCC4(CC3)c3ccccc3[C@@H](NC(=O)c3ccccc3)[C@@H]4O)nc12 2.53%, C=CC(C)(O)CCC=C(C)C (stereo not drawn) 6.76%, Cc1ccccc1 5.62%, COc1c2c(cc3c1C(CC(O)C(C)C)N(C)CC3)OCO2 (stereo not drawn) -24.6%, CC(=O)O[C@]1(C(C)=O)CC[C@H]2[C@@H]3C=C(C)C4=CC(=O)CC[C@]4(C)[C@H]3CC[C@@]21C -10.2%, C=C1[C@H](CO)[C@@H](O)C[C@@H]1n1cnc2c(=O)[nH]c(N)nc21 -16.8%, CN(C)c1ncc2nc(-c3ccc(F)cc3)c(=O)n(Cc3cccs3)c2n1 -14.6%, CCNC(=O)NCc1cccc(Cl)c1 0.53%, Cc1nc(NCc2cccc3c2OCO3)sc1-c1ccn(CC2CCCN(C)C2)n1 (stereo not drawn) -7.2%, NC[C@H]1O[C@H](O[C@H]2[C@H](O)[C@@H](O[C@H]3O[C@H](CO)[C@@H](O)[C@H](N)[C@H]3O)[C@H](N)C[C@@H]2N)[C@H](N)[C@@H](O)[C@@H]1O -14.3% and -6.5%, CS(=O)(=O)N1CCC2(CCCN(c3cccc(-c4ccccc4)c3)C2)CC1 -0.219%, C[C@@H](CSc1ccccc1)CN1CC[C@H](C(C)(C)C)CCC1=O -31.2%, CN1CCc2cc3c(cc2[C@@H]1[C@@H]1C(=O)Oc2c1ccc1c2OCO1)OCO3 -14.9%, Cc1nc2ccccc2nc1/C=C/c1ccc(N(C)C)cc1 -42.8%, CC1CCCC(C)N1NC(=O)c1ccc(Cl)c(S(N)(=O)=O)c1 (stereo not drawn) -21.7% and 1.5%, O=S1(=O)CCO[C@H]2Cc3ccccc3[C@H]2N1Cc1cccc(C(F)(F)F)c1 -29.1%, O=C(c1cccc(F)c1)N1CCC2(CCCN(Cc3ccncc3)C2)CC1 -20.1%, O=c1cnc2cnc(N3CCNCC3)nc2n1CCc1ccccc1 -14%, Cc1noc(C)c1C(=O)N1CCC2(CCCN(C(=O)NC(C)C)C2)CC1 -10.7%, COc1cccc(-n2c(SC)nnc2C2CCN(Cc3cccc(OC)c3O)CC2)c1 -21.3%, Cc1cccc(CNc2nc(-c3ccc(C(=O)N(C)C)cc3)nc3ccccc23)c1 -24.7%, Nc1nnc(-c2cccc(Cl)c2Cl)c(N)n1 -4.69% and 6.66% and -60.6%, COc1cccc(Nc2ncc3nc(C)c(=O)n(CCC#N)c3n2)c1 -14.2%, Oc1cc(O)cc(/C=C/c2ccc(O)c(O)c2)c1 -20% and -25.6%, Cc1c(CN2CCOc3ccc(C(C)(O)COc4ccccc4)cc3C2)cnn1C (stereo not drawn) -5.48%, COc1ccc(-n2c(=O)cnc3cnc(Nc4ccccc4)nc32)cc1 -30%, CCCCN1CC[C@H]2C=CC[C@@H](C(=O)NC3CCCCC3)[C@H]2C1=O -18.1%, COC(=O)N1CCC2(CCN(C(=O)Nc3cccc(C#N)c3)CC2)CC1 -9.08%, CC(C)NC(=O)N1CC[C@@]2(CCCN(C(=O)c3cc(C(F)(F)F)cc(C(F)(F)F)c3)C2)C1 -7.69%, CC(=O)N1CCC[C@@]2(CCN(C(c3ccccc3)c3ccccc3)C2)C1 -10.1%, C[C@@H](C[C@H](N)C(=O)O)C(=O)O 11.6%, CC(C)(S)[C@H](N)C(=O)O 1.22%, Clc1cc(Cl)c(OCC#CI)cc1Cl -6.15%, O=C(C[C@H]1C(=O)N(Cc2ccccc2)C[C@@H]1Cc1ccccc1)Nc1ccccc1 -27.3%, O=C(O)/C=C(\CC(=O)O)C(=O)O 3.85% and 0.532%, CN(C)c1ncnc2ccc(-c3cccc(NS(C)(=O)=O)c3)cc12 -5.03%, COc1ccc(-c2nc3cnc(Nc4ccccc4)nc3n(C[C@H]3CCCO3)c2=O)cc1 1.11%, C=C1CCC(=O)C(C)CCC2C1CC2(C)C (stereo not drawn) -0.201%, N=C(N)c1ccc(OCCCCCOc2ccc(C(=N)N)cc2)cc1 (tested in a mixture with another compound) -12.6%
